Assay results as given in PubChem BioAssay AID1963576 (National Center for Advancing Translational Sciences (NCATS), 2024).
Out of some 46,000 compounds screened, about 60 (0.1%) were called active. Not shown: some 3% with an inconclusive outcome. Calls come from the whole dose curve; as a rule, active = well fitted inhibition curve with a large enough effect; inconclusive = small, poorly fitted or top-dose-only effect; inactive = no such curve, though single readings can be large or run the other way. The list shows a part of the results.

Assay: Primary qHTS assay for Inhibitors of ovarian cancer metastasis using an organotypic tumor microenvironment (TME) model.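 For activity change, negative = inhibition: plate controls were DMSO wells for no effect and tomatine positive control wells for full effect.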 Note: nearly all actives have a fitted effect of over 65% in size.
Details: SKOV3ip1-GFP adhesion/invasion on 3D omental model, fluorescence; series mostly up to 45.8 µM; activity change, negative = inhibition: at the top concentration
Method in brief: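 qHTS, 4-pt dose (0.36-46 umol/L); SKOV3ip1-GFP, 1,200 cells/well, no FBS; primary omental fibroblast/mesothelial co-culture 48 h pre-grown; 2 h RT + 16 h 37 C; PBS wash, 4% PFA; GFP count 488/509 nm.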

Activity change, negative = inhibition, inactive:
COc1cc2c(cc1NC(=O)COc1cc(C)ccc1C)oc1ccccc12 -5.51%, Cc1cccc(N2CCN(C(=O)c3cn(C4CCCCC4)c(=O)c4c3c3ccccc3n4C)CC2)c1C 9.39%, Cc1ccc(Cn2c(CNS(=O)(=O)c3c(C)cc(C)cc3C)nc3cccnc32)cc1 -5.48%, Cc1c(C)n(Cc2ccccc2)c2ccc(C(=O)NC(C)c3ccccc3)cc12 (stereo not given) -8.45%, CC(=O)Nc1nonc1-c1nnc(SCC(=O)Nc2ccc(F)cc2F)n1-c1ccccc1 9.47%, CCOC(=O)c1ccc(N2CCN(c3cc(Cl)ccc3C)CC2)c(NC(=O)Nc2cccc(OC)c2)c1 2.91%, Cc1cccc(OCCSc2nc3ccccc3n2CC(=O)N2CCCCC2)c1C -18.5%, CCN(Cc1ccccc1)Cc1c(O)ccc2c(=O)c(-c3ccccc3OC)c(C(F)(F)F)oc12 -5.41%, CCn1ccc2cc(S(=O)(=O)N3CCCN(C(=O)Nc4ccccc4OC)CC3)ccc21 0.728%, CCc1ccc(OCC(=O)N(Cc2cccs2)c2ccc(Cl)cc2)cc1 65.6%, CCOCCCNC(=O)C1CCCN(Cc2nc(-c3ccc(CC)cc3)oc2C)C1 (stereo not given) 9.4%, CCOC(=O)N1CCN(S(=O)(=O)N2CCCC(C(=O)NCc3cc(OC)ccc3OC)C2)CC1 (stereo not given) -7.78%, Cc1nc(CC(=O)Nc2ccc(C)c(C)c2)cs1 -3.31%, CCc1ccc(-n2c(SC(CC)C(=O)N(CC)CC)nc3n[nH]c(C)c3c2=N)cc1 (stereo not given) 6.21%, COc1ccc(N2CC(NC(=O)/C=C\c3ccc(OC)c(OC)c3)CC2=O)cc1 (stereo not given) 0.835%, CCCCOc1ccc(C2=NC(c3ccncc3)=Nc3ccc(Br)cc3N2)cc1 -26.2%, COc1ccc(N2CCN(C(CNC(=O)CC(C)C)c3ccc4c(c3)OCO4)CC2)cc1 (stereo not given) 10.5%, CCc1cccc(CC)c1NC(=O)Cn1nnc2sc(-c3ccccc3)cc2c1=O -21.8%, Cc1ccc(/C=C/c2onc(C)c2S(=O)(=O)N2CCC(C(=O)N3CC(C)Oc4ccccc43)CC2)cc1 (stereo not given) -15.7%, Cc1c(Cl)cccc1-n1ncc(C(=O)N2CCc3ccccc3C2)c1C1CCN(C(=O)OC(C)(C)C)CC1 -7.9%, COc1ccc(OCC(=O)Nc2ccc(C(=O)OCc3cc(=O)n4nc(C)sc4n3)cc2)cc1 -9.26%, CC(=O)N1CCC(N(C(=O)Nc2ccc(C)c(F)c2)C(C)C)CC1 -1.76%, COc1cc(Cl)c(NS(=O)(=O)c2ccc3c(c2)CC(C)N3C(=O)C2CCC2)c(OC)c1 (stereo not given) -1.16%, Cc1ccc(C(Nc2ccccn2)c2ccc3cccnc3c2O)cc1 (stereo not given) -28%, COc1ccccc1NC(=O)CCS(=O)(=O)c1ccc2nc(C)sc2c1 -8.41%, CCc1ccc(NC(=O)CC2C(=O)N(c3cccc(OC)c3)C(=O)N2Cc2ccco2)cc1 (stereo not given) 22.1%, Cc1ccc(NC(=O)c2oc3ccccc3c2NC(=O)Cc2cccs2)cc1 4.74%, CCn1c(C(=O)N2CCCC(C(=O)NCCCOC)C2)cc2sccc21 (stereo not given) -0.88%, Cc1ccccc1NC(=O)c1c(NC(=O)C(C)Oc2cccc(Cl)c2)sc2c1CCCC2 (stereo not given) -0.134%, CCc1c(C)sc2c1CCN(C(=O)Nc1ccccc1C(F)(F)F)C2c1ccccc1 (stereo not given) 4.12%, O=C(c1nc(-c2ccc(Cl)cc2)n2c1CCCCC2)N1CCN(c2ccccc2F)CC1 5.34%, Cc1oc2c(c1C(=O)Nc1cccc(Br)c1)C1=NCCN1C=N2 3.82%, COc1cc(NC(=O)c2c(-c3ccc(C)cc3)nnc3ccccc23)cc(OC)c1OC 0.236%, O=C(Cn1nc(-c2ccccc2)ccc1=O)NCc1ccc(F)cc1Cl -13.7%, COc1ccccc1Nc1nn2c(=O)c3ccc(C(=O)N4CCC(C)CC4)cc3nc2s1 -7.53%, COc1ccccc1CNC(=O)CC1N=C2c3ccccc3N=C(SCC(=O)Nc3ccc(F)cc3)N2C1=O (stereo not given) 2.96%, Cc1ccc(NC(=O)c2cc(C)nn2-c2ccccc2)cc1 -17.6%, Cc1nc2scc(C)n2c(=O)c1S(=O)(=O)NCc1ccccc1Cl 2.93%, CC(=O)Nc1ccc(NC(=O)CCCc2nc(-c3ccc(C(C)(C)C)cc3)no2)cc1 -7.01%, CC(=O)c1ccc(N2C(=O)N(Cc3cccc(C(F)(F)F)c3)c3ccccc3S2(=O)=O)cc1 -7.42%, O=C(CSc1nc(-c2ccc(F)cc2)cc(C(F)(F)F)n1)NCc1ccccc1 -8.12%, COc1cc(C2C(=O)N(C3CCCCC3)CC(=O)N2C2CCCC2)ccc1OC(C)C (stereo not given) 3.96%, COc1ccc(OCC(=O)NCC2(N3CCN(C)CC3)CCCCC2)cc1 0.343%, CC(C)(C)OC(=O)N1CCC(c2c(C(=O)NC3CCN(Cc4ccccc4)CC3)cnn2-c2cccc(F)c2)CC1 -3.36%, CCOC(=O)c1ccc2c(c1)N(Cc1cccc(OC)c1)C(=O)c1ccccc1S2(=O)=O 3.34%, O=[N+]([O-])c1cc(-c2nc(-c3ccccc3)no2)ccc1NCC1CCCO1 (stereo not given) 5.1%, Cc1ccc2ncc(C(=O)NCc3ccccc3Cl)c(=O)n2c1 1.27%, CCC(CC)C(=O)Nc1ccc(OCc2cc(=O)n3ccsc3n2)cc1 -0.615%, CN(C)Cc1cccc(N=C(c2ccccc2)c2c(O)[nH]c3cc(C(=O)N(C)C)ccc23)c1 14.3%, Cc1ccc(-c2cc(C(=O)NC(C)c3ccccc3)c3ccccc3n2)cc1C (stereo not given) 3.72%, CC1CCN(c2ccc(NC(=O)c3cccc(Cl)c3)cc2C(=O)O)CC1 -4.13%, CCOc1cccc2sc(N(Cc3cccnc3)C(=O)C3CCCCC3)nc12 5.67%, Cc1ccc(NC(=O)CSCc2cnn(-c3ccccc3)c2-n2cccc2)c(C)c1 -36.3%, CCc1ccccc1NC(=O)c1ccc(F)c(S(=O)(=O)NC2CCCCCC2)c1 -3.22%, COc1ccc(NC(=O)CSc2nc3ncccc3[nH]2)c(OC)c1 10.4%, Cc1cc(OC(C)C(=O)N(Cc2ccco2)Cc2ccccc2F)cc(C)c1Cl (stereo not given) -0.571%, O=C(CCCCn1c(=O)c2ccccc2n(Cc2ccc(Cl)cc2)c1=O)NCc1ccccc1Cl 6.15%, Cc1ccc(CCNC(=O)C2CCN(c3nnc(C)c4c(C)n(-c5ccccc5)nc34)CC2)cc1 -13.5%, COc1ccc(-c2cc(C(=O)Oc3cccc(C)c3)c3ccccc3n2)cc1 1.31%, CCC(=O)N1CCc2cc(Br)cc(S(=O)(=O)N3CCN(c4ccc(C(C)=O)cc4)CC3)c21 6.67%, CN1CCN(C(c2ccccc2Cl)c2sc3nc(-c4ccco4)nn3c2O)CC1 (stereo not given) -6.68%, Cc1ccc(C)c(N2CCN(CCCNC(=O)C3COc4ccccc4C3)CC2)c1 (stereo not given) -24.4%, N#C/C(=C\c1ccc(-c2ccccc2C(=O)O)o1)c1nc2ccccc2[nH]1 -16.4%, CC(C)C[C@@H](N)[C@H](O)C(=O)N[C@H](C(=O)N[C@H](C(=O)N[C@@H](CC(=O)O)C(=O)O)C(C)C)C(C)C -5.02%, Cc1cc(C)n(CC(=O)Nc2ccc(F)c(F)c2)c(=O)c1C#N 1.23%, COc1ccc(-n2nc(C(=O)NCCc3ccc(Cl)cc3)c3c4ccccc4n(C)c3c2=O)cc1Cl -1.09%, O=C(Cn1c(=O)n(Cc2ccco2)c(=O)c2ccc(C(=O)NC3CCCC3)cc21)Nc1ccc(F)cc1 2.03%, CCN(CC)C(=O)C1=C(C)Nc2nc3ccccc3n2C1c1ccc(Br)cc1 (stereo not given) 0.308%, CCOC(=O)c1c(NC(C)=O)c2c3c(sc2n1Cc1nc(-c2ccc(Cl)cc2)oc1C)CCCC3 -4.89%, COc1ccc(C)cc1NC(=O)C(=O)NCCc1sc(-c2ccc(Cl)cc2)nc1C -5.86%

outcome, inactive:
CCCOC(=O)c1c(C)oc2c1cc(NS(=O)(=O)c1ccc(OCC)cc1)c1ccccc12, COc1ccc(-c2cn3c(n2)sc2cc(C(=O)NC4CCCc5ccccc54)ccc23)cc1 (stereo not given), Cc1cc(C(=O)O)c2c(=O)n(C)c(=O)n(C)c2n1, Cc1cc2oc(=O)c(CC(=O)NCCc3ccccc3)c(C)c2c2occ(C(C)(C)C)c12, COc1ccc(-c2nc(CS(=O)CC(=O)NCc3ccc(F)cc3)c(C)o2)cc1OC (stereo not given), CCCCCn1c(=O)[nH]c2cc(C(=O)N3CCN(c4ccccc4)CC3)ccc2c1=O, CCOc1ccccc1N(CC)C(=O)Nc1cn(C)c(=O)c2ccccc12, CCOc1ccccc1NC(=O)Nc1nnc(N(C)Cc2ccccc2)s1, COc1ccc2c(c1)cc1c(=O)n(CC(=O)NC3CCCCC3)nc(C)n12, O=C(CCn1cnc2onc(-c3ccc(F)cc3)c2c1=O)N1CCN(c2ccc(F)cc2)CC1, COc1cc(Cl)c(C)cc1NC(=O)CCc1c(C)nc2cc(-c3cccc(F)c3)nn2c1C, COc1ccc(S(=O)(=O)Nc2cccc(-c3ccc(N4CCOCC4)nn3)c2)cc1F, CCOc1cc(C(=O)Nc2ccc3oc(-c4ccc(F)cc4Cl)nc3c2)cc(OCC)c1OCC, CC1=C(C(=O)OC2CCCC2)C(c2ccc(F)cc2F)CC(=O)N1 (stereo not given), CCCCNC(=O)CCC(=O)NNc1nc2ccccc2c2nc(-c3ccccc3)nn12, CC(=O)Nc1ccccc1-c1nc2ccccc2n(CC(=O)c2ccc(C)c(C)c2)c1=O, CCCS(=O)(=O)c1ncc(Cl)c(C(=O)N2CCN(c3ccc(OC)cc3)CC2)n1, COc1ccc(NC(=O)C2CCCN(C(=O)c3cnn(-c4ccc(F)cc4)c3-n3cccc3)C2)cc1 (stereo not given), Cn1c(=O)cc(OCC(=O)N2CCN(c3ccccc3)CC2)c2ccccc21, COc1ccc(C)cc1NCc1nnc2n1CCCCC2, Cc1cccc(NC(=O)c2ccc(C(=O)Nc3cccc(C)c3C)cc2)c1C, COc1ccc(CCNC(=O)c2c(O)nc3cc(C)ccn3c2=O)cc1OC, O=C(Cn1nc2c(cc1=O)CCCC2)Nc1ccc(F)cc1F, CC(=O)c1cccc(NC(=O)CCS(=O)(=O)c2cc3c(cc2C)NC(=O)CO3)c1, CCc1noc(-c2ccc(NC(C)c3ccccc3)c([N+](=O)[O-])c2)n1 (stereo not given)
